The supplement of paper PMC10126150
Sequences with one replicate were seen in a single cluster, so their values are uncertain.

Tested on: ATP
Test: switch fluorescence ratio, 500 uM ATP over buffer (Cy3 cluster intensity, sum of 5 cycles each) (fold (ratio)); higher = stronger signal-on switching upon ATP binding; sequences stand for … in TCGTCGGCAGCGTCAGATGTGTATAAGAGACAGTTTTTTTTTTTTTTTTTTTTTTTTT…TC
Settings: aptamer strand: ATP DNA aptamer (quencher-CACCTGGGGGAGTATTGCGGAGGAAGG + anchor), 100 nM annealed; ATP concentration: 500 uM; one replicate
How it was run: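 Between each of five buffer/ATP cycles, the flow-cell was stripped with NaOH and re-annealed. Each cycle imaged Cy3-labelled switching-strand clusters, annealed to 100 nM quencher-labelled ATP aptamer on a modified Illumina MiSeq flow-cell, first in selection buffer and then after 15 min with 500 uM ATP at 22 °C. The fluorescence ratio is summed target-cycle over summed buffer-cycle Cy3 intensity per cluster, averaged per switch-domain sequence, with clusters outside 100-1000 RFU excluded.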
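Note: ATP exposure 15 min at 22 °C before imaging.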

In the case of CAGTGGTGCG, the switch fluorescence ratio is reported as 0.93.
In the case of TACGTTTAAA, the switch fluorescence ratio is reported as 1.02.
In the case of GATGGGAGAA, the switch fluorescence ratio is reported as 1.01.
With ACGATGAATT the switch fluorescence ratio was 1.03.
For GCGGATTAAG, the switch fluorescence ratio was 0.983.
GTGAAACTCT showed a switch fluorescence ratio of 1.03.
Sequence ACTTGCGTGA has a switch fluorescence ratio of 1.04.
TTATCCTCTC was tested, and the switch fluorescence ratio was 1.03.
CGAGCTAGGT showed a switch fluorescence ratio of 1.04.
With TTATATTCTA the switch fluorescence ratio was 0.985.
In the case of TCTCACAGGG, the switch fluorescence ratio is reported as 1.51.
For AAATGTTCGG, the switch fluorescence ratio was 0.985.
CTAAGGCTAG showed a switch fluorescence ratio of 0.978.
For TGTTCATTCA, the switch fluorescence ratio was 0.992.
For AATTTCTTCA, the switch fluorescence ratio was 1.03.
TACTAGGAC was tested, and the switch fluorescence ratio was 1.07.
TTTAACTTCA gave a switch fluorescence ratio of 0.983.
TACCTGGTTG gave a switch fluorescence ratio of 0.986.
TAATAAGCTA showed a switch fluorescence ratio of 1.02.
For GACATTCGGC, the switch fluorescence ratio was 1.05.
ACGGGTTAG was tested, and the switch fluorescence ratio was 1.
TTTGGGTCCA was tested, and the switch fluorescence ratio was 1.01.
Work on ACGATACTAA yielded a switch fluorescence ratio of 1.23.
For ATTCCCTCCC, the switch fluorescence ratio was 0.996.
AAATTTGCGG gave a switch fluorescence ratio of 0.97.
Sequence ACTGTAGCTG has a switch fluorescence ratio of 1.12.
With GGTGGTTTCA the switch fluorescence ratio was 0.997.
AGATAGCTTA showed a switch fluorescence ratio of 1.
GCGTGTAACC showed a switch fluorescence ratio of 1.02.
GTAGCGAGCA gave a switch fluorescence ratio of 1.07.
ATAAGGCCGG gave a switch fluorescence ratio of 1.05.
For GGTATGCATG, the switch fluorescence ratio was 0.914.
Sequence TTAGACGATG has a switch fluorescence ratio of 1.04.
For CACATCGCGG, the switch fluorescence ratio was 0.978.
In the case of AGAAAGACAG, the switch fluorescence ratio is reported as 1.03.
Sequence AAATCTTACC has a switch fluorescence ratio of 1.14.
GCGCCTCCGA showed a switch fluorescence ratio of 2.55.
AAACTGACCA gave a switch fluorescence ratio of 1.1.
In the case of TTGAGACATG, the switch fluorescence ratio is reported as 1.02.
GACGACGTTT was tested, and the switch fluorescence ratio was 1.23.
Sequence TGATGTAGTC has a switch fluorescence ratio of 1.02.
With TCAAAGCGTG the switch fluorescence ratio was 0.967.
For GATAGATAGT, the switch fluorescence ratio was 1.
TAAAGTCCTC showed a switch fluorescence ratio of 1.02.
In the case of TTGGTCAATT, the switch fluorescence ratio is reported as 1.01.
AGTGGTGTT was tested, and the switch fluorescence ratio was 0.993.
Work on AGCAGCGACG yielded a switch fluorescence ratio of 1.03.
Sequence TGGTGCGTGG has a switch fluorescence ratio of 0.949.
With TCCCCGACCT the switch fluorescence ratio was 1.32.
In the case of TTTGTTGTG, the switch fluorescence ratio is reported as 1.01.
For CTTTGTTGTC, the switch fluorescence ratio was 1.11.
With GTTTCTTGGT the switch fluorescence ratio was 0.942.
GCACGCGCTA showed a switch fluorescence ratio of 1.02.
With ACGATACTGG the switch fluorescence ratio was 1.49.
For TCTTTTGAA, the switch fluorescence ratio was 0.954.
CGGACGCTGT gave a switch fluorescence ratio of 1.27.
Sequence CCGGAATAGA has a switch fluorescence ratio of 1.34.
With TTATCCAAG the switch fluorescence ratio was 0.981.
In the case of CGAGGTATAC, the switch fluorescence ratio is reported as 3.44.
For AGGTTCGGTG, the switch fluorescence ratio was 0.978.
CGGCTCCGGC gave a switch fluorescence ratio of 1.03.
Work on AACAAAAAGG yielded a switch fluorescence ratio of 1.
TGCGCT gave a switch fluorescence ratio of 0.992.
In the case of GTCGTAATCC, the switch fluorescence ratio is reported as 1.33.
Work on GGCCGGTCAG yielded a switch fluorescence ratio of 1.04.
GTAGTCATTG gave a switch fluorescence ratio of 1.04.
CGGTGCATTC was tested, and the switch fluorescence ratio was 2.29.
Work on TGGCATATGT yielded a switch fluorescence ratio of 1.
Sequence ATTGTATACG has a switch fluorescence ratio of 0.996.
ACGGGGAAT gave a switch fluorescence ratio of 1.01.
Work on CGGTGAACAT yielded a switch fluorescence ratio of 0.977.
GCCAGAGGTT gave a switch fluorescence ratio of 1.03.
AAGTAATGCA was tested, and the switch fluorescence ratio was 1.
With TAATAGGGA the switch fluorescence ratio was 1.01.
GCATAGAGAT was tested, and the switch fluorescence ratio was 0.965.
In the case of CGGTATCGAC, the switch fluorescence ratio is reported as 1.05.
With AGCTCAGATT the switch fluorescence ratio was 0.956.
ACGCGGGTGA was tested, and the switch fluorescence ratio was 1.05.
Work on GATTTCTCTC yielded a switch fluorescence ratio of 0.995.
GACCTTTTAG gave a switch fluorescence ratio of 1.03.
In the case of CACCTGGTGC, the switch fluorescence ratio is reported as 2.15.
GAGGTTCG was tested, and the switch fluorescence ratio was 0.976.
For TACGATTGTT, the switch fluorescence ratio was 1.
TAGACGTGTT was tested, and the switch fluorescence ratio was 1.02.
GTTAGAGCTA was tested, and the switch fluorescence ratio was 1.03.
For TTTCGTTATA, the switch fluorescence ratio was 1.53.
In the case of TCCACTTAGC, the switch fluorescence ratio is reported as 0.977.
Work on ATAAAAATGT yielded a switch fluorescence ratio of 1.01.
TAAGTTTAAA showed a switch fluorescence ratio of 0.956.
In the case of TCTCATGTGG, the switch fluorescence ratio is reported as 1.02.
AAGGTCGGGC was tested, and the switch fluorescence ratio was 0.982.
For CCCGTGGTTC, the switch fluorescence ratio was 1.02.
With CTCTATAACG the switch fluorescence ratio was 1.03.
Sequence GAATTTCGA has a switch fluorescence ratio of 1.01.
In the case of TTGGTATAGG, the switch fluorescence ratio is reported as 1.02.
CAGGATCGTA gave a switch fluorescence ratio of 0.954.
ACTGTGGGAG showed a switch fluorescence ratio of 1.15.
ACGATATCGG showed a switch fluorescence ratio of 0.959.
In the case of AAGCCCTTAA, the switch fluorescence ratio is reported as 1.
In the case of GCTATGCTCC, the switch fluorescence ratio is reported as 3.1.
In the case of CATCCTCCTG, the switch fluorescence ratio is reported as 1.3.
Work on ATTACCGGGC yielded a switch fluorescence ratio of 0.899.
Work on GATACAGTAT yielded a switch fluorescence ratio of 1.1.
Sequence CGGCGTATCT has a switch fluorescence ratio of 0.973.
In the case of AGAAAAACTT, the switch fluorescence ratio is reported as 0.986.
In the case of GTGAAAAGGA, the switch fluorescence ratio is reported as 0.993.
With TACTTAATC the switch fluorescence ratio was 0.973.
With GAAGAATGGG the switch fluorescence ratio was 0.983.
AAGTCGGTGA gave a switch fluorescence ratio of 0.967.
For ACCTCAAGAG, the switch fluorescence ratio was 1.21.
For TAGTCCGTTT, the switch fluorescence ratio was 0.982.
For CCGGTACAAG, the switch fluorescence ratio was 1.11.
GATAGCCTGG was tested, and the switch fluorescence ratio was 0.978.
With CATTGGAATT the switch fluorescence ratio was 0.986.
For CCATGTCAC, the switch fluorescence ratio was 1.07.
AATCTGACGA was tested, and the switch fluorescence ratio was 1.36.
GCGAGTCGTG was tested, and the switch fluorescence ratio was 0.968.
In the case of TTGGGTGTCA, the switch fluorescence ratio is reported as 1.03.
In the case of TTTGTATAT, the switch fluorescence ratio is reported as 1.04.
TTTCTGGCCC showed a switch fluorescence ratio of 1.04.
TCTCCCCATT gave a switch fluorescence ratio of 1.42.
For CACGATGCGG, the switch fluorescence ratio was 0.996.
TTGGAAAAGC gave a switch fluorescence ratio of 0.991.
With AGTTTCTCGT the switch fluorescence ratio was 1.
Work on AGTAGAAATA yielded a switch fluorescence ratio of 1.04.
GCGCCTGTAG was tested, and the switch fluorescence ratio was 1.04.
TTGTTGACT gave a switch fluorescence ratio of 1.02.
Sequence GGGCTGCGGC has a switch fluorescence ratio of 0.992.
ACGCCGCAT showed a switch fluorescence ratio of 2.7.
TGAATCGAAT was tested, and the switch fluorescence ratio was 0.972.
In the case of ACAGCATTCG, the switch fluorescence ratio is reported as 1.06.
TTTAGCCTGA was tested, and the switch fluorescence ratio was 0.997.
With TCACAGAAC the switch fluorescence ratio was 1.06.
AGGTCGGAGG was tested, and the switch fluorescence ratio was 1.01.
AACTCAAAAT gave a switch fluorescence ratio of 1.03.
Sequence TGGACGGTT has a switch fluorescence ratio of 1.07.
With GGCGTGCTCG the switch fluorescence ratio was 1.03.
CGTGGGGCGT gave a switch fluorescence ratio of 1.05.
In the case of TCTATTCGCA, the switch fluorescence ratio is reported as 1.
CTACTAAATT was tested, and the switch fluorescence ratio was 0.976.
GGGAGGGGAT was tested, and the switch fluorescence ratio was 1.05.
Work on AGATGAGGTT yielded a switch fluorescence ratio of 0.999.
Work on ATCGGTTATA yielded a switch fluorescence ratio of 0.993.
In the case of CTTGAGATCG, the switch fluorescence ratio is reported as 1.
TCTGTTAGCT gave a switch fluorescence ratio of 1.03.
In the case of TCTTGTTCAT, the switch fluorescence ratio is reported as 1.02.
Sequence TTTGCGGATT has a switch fluorescence ratio of 0.988.
GGGGGGTGCC was tested, and the switch fluorescence ratio was 0.988.
Sequence TAGTTGTTT has a switch fluorescence ratio of 0.977.
CGAGCGGTA was tested, and the switch fluorescence ratio was 1.03.
AAGAATGATA gave a switch fluorescence ratio of 0.98.
ACTTACGTTG showed a switch fluorescence ratio of 1.29.
ATGGGTATTC was tested, and the switch fluorescence ratio was 1.01.
Sequence AAGGAGTGAA has a switch fluorescence ratio of 0.962.
With TTGTTCCGGG the switch fluorescence ratio was 1.06.
TTGTGACAC showed a switch fluorescence ratio of 1.02.
CCTGAGTTGG showed a switch fluorescence ratio of 1.02.
Work on AGCGACGGG yielded a switch fluorescence ratio of 0.997.
